Results from the supplement of paper PMC3334620.
The full ranking holds about 33,000 sequences; the median of “E-score (-0.5 to 0.5)” is about -0.012, and the highest 2% start at about 0.29. The list shows a part of the results.

Molecular target: T1, Ybr033w (UniProt P38073)
T1 sequence: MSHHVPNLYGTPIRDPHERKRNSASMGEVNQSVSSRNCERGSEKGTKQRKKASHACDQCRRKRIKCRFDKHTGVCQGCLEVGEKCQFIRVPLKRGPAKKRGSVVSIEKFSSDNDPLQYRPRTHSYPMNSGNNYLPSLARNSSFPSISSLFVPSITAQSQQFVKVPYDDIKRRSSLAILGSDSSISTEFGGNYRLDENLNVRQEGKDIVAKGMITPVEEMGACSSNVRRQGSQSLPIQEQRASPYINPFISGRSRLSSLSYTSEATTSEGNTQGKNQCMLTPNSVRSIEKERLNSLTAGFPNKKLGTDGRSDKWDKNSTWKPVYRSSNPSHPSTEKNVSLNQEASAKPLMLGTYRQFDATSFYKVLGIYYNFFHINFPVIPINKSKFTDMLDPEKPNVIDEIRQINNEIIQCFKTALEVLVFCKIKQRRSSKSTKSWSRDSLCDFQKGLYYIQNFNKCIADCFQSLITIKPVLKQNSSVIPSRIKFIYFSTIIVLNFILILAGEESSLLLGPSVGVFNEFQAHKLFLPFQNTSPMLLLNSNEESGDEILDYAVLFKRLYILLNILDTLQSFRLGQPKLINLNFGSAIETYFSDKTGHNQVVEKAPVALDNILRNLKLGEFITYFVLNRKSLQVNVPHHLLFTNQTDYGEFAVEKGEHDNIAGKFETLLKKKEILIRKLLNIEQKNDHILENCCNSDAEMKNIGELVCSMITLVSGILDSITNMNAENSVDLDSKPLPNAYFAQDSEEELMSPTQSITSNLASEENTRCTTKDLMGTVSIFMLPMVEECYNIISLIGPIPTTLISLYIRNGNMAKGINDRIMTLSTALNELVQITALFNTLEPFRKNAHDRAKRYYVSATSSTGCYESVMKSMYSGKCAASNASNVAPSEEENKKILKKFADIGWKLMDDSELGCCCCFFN
Assay: PBM E-score (8-mer binding enrichment) (E-score (-0.5 to 0.5)); higher = stronger / more preferred TF binding; most listed sequences are background and not binding sites
Conditions: protein concentration: 200 nM; construct: GST-full length
Experimental: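 Universal 'all 10-mer' protein binding microarrays (Agilent AMADID 015681) probed with GST-tagged S. cerevisiae TFs (full-length or DBD) made by in vitro transcription/translation (PURExpress), about 100-200 nM. Bound TF was detected with fluorescent anti-GST. Each ungapped 8-mer (which stands for itself and its reverse complement) is scored by the PBM enrichment score (E-score), a modified Wilcoxon-Mann-Whitney statistic from -0.5 to +0.5, computed with the Universal PBM Analysis Suite. Scale: above 0.35 generally sequence-specific binding.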

Row | Sequence | PBM E-score
1 | AATACATC | 0.297
2 | CCGGATAC | -0.0612
3 | GGCCATAA | 0.0149
4 | AGGTAATC | 0.134
5 | ATTCCGGG | 0.188
6 | CGCGTATC | 0.0709
7 | AGTTCTGA | -0.0462
8 | CAACTTCA | 0.0086
9 | TGGGAACA | 0.111
10 | ATAAGACA | 0.118
11 | AAAGGGCA | -0.22
12 | CTGCTTAC | 0.00918
13 | ACAACAGC | 0.137
14 | AGCCCACG | -0.202
15 | AAAGTCCT | 0.0634
16 | ACGCAAAG | -0.0573
17 | ACGACTTG | -0.0732
18 | GTGTCTAA | 0.105
19 | GTCCTATA | -0.0933
20 | AAGGGAGT | -0.232
21 | CATGAAGA | 0.119
22 | AAATGCAA | 0.203

Row | Sequence | PBM E-score
23 | CGACGATA | -0.0965
24 | AACGTGGA | -0.0836
25 | AGACGAAG | -0.102
26 | AAGTTTTC | 0.285
27 | CGACAAAG | 0.0691
28 | ATTCCTGC | 0.105
29 | CGCGAACC | -0.0133
30 | CTGTTCTC | 0.0395
31 | CAAATCTA | 0.187
32 | CCCTCGGC | -0.237
33 | GAGTCTCC | -0.198
34 | GCAAACAC | -0.0584
35 | CAGAACGC | -0.161
36 | GAACCCGA | -0.158
37 | GCACTACC | -0.113
38 | AAAAGAAA | 0.179
39 | ACAGTCGA | -0.155
40 | AAGCAGCG | -0.0559
41 | GCAATCCC | -0.0124
42 | AGGTAACA | 0.148
43 | GAATGAAC | 0.176
44 | CTCACTCC | -0.13

Row | Sequence | PBM E-score
45 | CTGAGTTC | 0.037
46 | GGGGTGAC | -0.0265
47 | GCACGCGA | -0.226
48 | CTAAGTCC | -0.148
49 | CCGCAAAC | 0.00333
50 | TACCCAAA | 0.178
51 | CTTGAAAG | -0.0453
52 | CTATAGGC | -0.163
53 | GCGCGAGC | -0.21
54 | CCACCGAG | -0.108
55 | GGGCAACC | -0.116
56 | ACTTGTAT | 0.17
57 | ACACTATG | 0.116
58 | AGCTCAAG | -0.0708
59 | ATCAATCC | 0.104
60 | CCGTCGAA | -0.0394
61 | AAATATTA | 0.211
62 | ACGAGGTA | -0.0559
63 | GTGGACAC | -0.0803
64 | CCCCATAG | 0.0121
65 | CAACAATG | 0.0661
66 | CGTTCCCA | -0.0679

Row | Sequence | PBM E-score
67 | CATATTTC | 0.213
68 | CCGATTGC | 0.0858
69 | AGCATCAG | -0.014
70 | ATAGTCCA | 0.045
71 | GGCGAGTA | -0.00611
72 | ATATCTCA | 0.24
73 | GAGGCTGA | -0.0957
74 | ACCCACGA | -0.279
75 | GTGACTAA | 0.138
76 | GAGTCCGA | 0.0248
77 | GCCTAAGA | -0.127
78 | TACGAGTA | 0.297
79 | TCTCCTCA | -0.132
80 | CCGAGGTC | -0.232
81 | AAGTAAGC | 0.0648
82 | ATCCTTAA | 0.0415
83 | GGAGTCTA | -0.133
84 | GTGGGGGA | -0.292
85 | GATATAAC | 0.199
86 | CTTCCCAA | -0.0335
